# Assay results from the supplement of paper PMC10338343.
# ± gives the standard deviation. The entries are a selection whose mix differs from that of the whole data set.
# Test system: MIWI (PIWIL1) piRISC loaded with piRNA #1 (30 nt)
# Test: pre-steady-state target cleavage rate (min^-1); MIWI and MILI are mouse PIWI proteins and EfPiwi is from a freshwater sponge; tags in brackets are library labels; higher = faster piRNA-guided slicing of the target
# Conditions: guide: piRNA #1 5'p-UGAGGUAGUAGGUUGUAUAGUAUCCAGAGG; auxiliary factor: 500 nM mouse GTSF1
# Method in brief: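 A transcribed, DNA-blocked target RNA library (0.1 nM) and 1 nM active affinity-purified piRISC bearing one synthetic guide were incubated in HEPES–potassium acetate buffer at 33 °C for 0–8 or 0–960 min, either with or without 500 nM GTSF1 partner protein. Uncleaved targets were sequenced, normalised to depth and to weakly complementary targets, and pooled over three trials, with k3 capped at 0.0001 min^-1. The pre-steady-state cleavage rate was derived with a burst-and-steady-state fit.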
row,Sequence,pre-steady-state target cleavage rate
1,GGAGACGAUACUAAACAUCCUACUACCUCA,1.08 ± 0.085
2,GGAGACGAUACUAUACAACCUACAUACCUCA,1.29 ± 0.095
3,GGACUGGAUUCUAUACAAGCUACUACCUCA,1.1 ± 0.064
4,GGAGACCUAUGAUAUGUUGGUUGAACCUCA,< 0.0001
5,GGAGUGGAUACUUUACAAGCUACUACCUCA,0.882 ± 0.051
6,GCUCUGGAUACUAUACAAGCCUACUACCUCA,0.0047 ± 0.0043
7,GGAGACCUUACUAUACAACGUACUAGCUCA,0.186 ± 0.033
8,CCUCUGGAUACUAAACAACCUACUACCUCA,1.86 ± 0.12
9,GGAGACGAUACUAUACAUCGUACUACCUCA,0.328 ± 0.029
10,GGAGACGAUACUAUACAACCUAACUACCUCA,0.0273 ± 0.0052
11,GGUCUGGAUACUAUACAAGCUACUACCUCA,1.17 ± 0.052
12,CCUCUGGAUACUAAACAACCUACUACCACA,1.76 ± 0.12
13,GGAGACGAUUCUAUACAACCUACUAGCUCA,0.636 ± 0.053
14,GGACUGGAUACAAUACAACCUACAACCUCA,0.308 ± 0.035
15,GGAGUGGAUACUAUACAACCUACUACGAGA,0.00866 ± 0.0068
16,GGACUGCAAACUAUACAACCUACUACCUCA,0.971 ± 0.094
17,GGUCUGGAUACUAUACAACCUACUACCCA,0.281 ± 0.067
18,GGAGACGAUAUAUACAACCUACUACCUCA,1.06 ± 0.089
19,GGUCUGGAUACUAUUCAACCUACUAGCUCA,0.0661 ± 0.014
20,GGUCUGGAUACUAUACAAGGAACUACCUCA,0.00269 ± 0.0026

row,Sequence,pre-steady-state target cleavage rate
1,GGAGACGAUACUUUACAACCAACUACCUCA,0.0791 ± 0.0084
2,GGAGACCUAUCCUAUACAACCUACUACCUCA,1.08 ± 0.1
3,GCUCUGGAUAGUAUACAACCUACUAGCUCA,0.413 ± 0.054
4,GGAGACCUAUGUAUACAACCUGCUACCUCA,0.0174 ± 0.0032
5,GGAGACCUAUGAUAAGAUCCUACUACCUCA,< 0.0001
6,CCUGUGGAUACUAAACAACCUACUACCUCA,1.92 ± 0.12
7,GGAGUGGAUACUAUACAACCUACUUACCUCA,1.11 ± 0.072
8,GCUCUGGAUAGUAUACAACCUUCUACCUCA,0.532 ± 0.033
9,GGAGUGGAUACUAUACAACCAACUACCACA,0.0934 ± 0.0094
10,GGAGACCUUACUAUACAACCUAUUACCUCA,1.63 ± 0.16
11,GGUCUGGAAACUAUACAACCUACUUCCUCA,0.00438 ± 0.0025
12,CCUCUGGUUACAAUACAACCUACUACCUCA,2.15 ± 0.13
13,CCUCAGGAUACUAUUCAACCUACUACCUCA,2.22 ± 0.14
14,GGAGAGGAUACUAUACUACCUACUACCUCA,1.06 ± 0.052
15,GGAGACCUAUGUAUACAACCUACUCCCUCA,0.0312 ± 0.0043
16,GGUCAGGAUACUAUACAACGUACUACCUCA,0.729 ± 0.043
17,GGAGACCUUACUAUACUACCUUCUACCUCA,0.0539 ± 0.0082
18,GGUCUGGAUACUAUACAACCUACAAGCUCA,0.00458 ± 0.0032
19,GGAGACCAUACUAUACAACCUACUGCCUCA,1.25 ± 0.098
20,CCUCUGGAUACUAUAGCAACCUACUACCUCA,1.35 ± 0.11
